Among the data in publication PMC6683012 are binding values, retold here.

Substitutions are numbered along the chain they refer to. No constants are given. Whether binding was seen depends on the method and setting. Binding seen in cells or lysates may run through a third protein. Some binding calls cover weakened binding; strength is not graded here. Sequences can lack the tags named with a protein.

Common to all, as to assay: split reporter; ratiometric BiFC (rBiFC 2in1 vectors), transient expression in Nicotiana benthamiana leaves for 2 days; YFP/RFP ratio from 10-30 cells; ratios greater than 1 taken as interaction
For one experiment, the target named is T1, SIRK1-cYFP (Arabidopsis) (UniProt Q0WR59).
T1 sequence: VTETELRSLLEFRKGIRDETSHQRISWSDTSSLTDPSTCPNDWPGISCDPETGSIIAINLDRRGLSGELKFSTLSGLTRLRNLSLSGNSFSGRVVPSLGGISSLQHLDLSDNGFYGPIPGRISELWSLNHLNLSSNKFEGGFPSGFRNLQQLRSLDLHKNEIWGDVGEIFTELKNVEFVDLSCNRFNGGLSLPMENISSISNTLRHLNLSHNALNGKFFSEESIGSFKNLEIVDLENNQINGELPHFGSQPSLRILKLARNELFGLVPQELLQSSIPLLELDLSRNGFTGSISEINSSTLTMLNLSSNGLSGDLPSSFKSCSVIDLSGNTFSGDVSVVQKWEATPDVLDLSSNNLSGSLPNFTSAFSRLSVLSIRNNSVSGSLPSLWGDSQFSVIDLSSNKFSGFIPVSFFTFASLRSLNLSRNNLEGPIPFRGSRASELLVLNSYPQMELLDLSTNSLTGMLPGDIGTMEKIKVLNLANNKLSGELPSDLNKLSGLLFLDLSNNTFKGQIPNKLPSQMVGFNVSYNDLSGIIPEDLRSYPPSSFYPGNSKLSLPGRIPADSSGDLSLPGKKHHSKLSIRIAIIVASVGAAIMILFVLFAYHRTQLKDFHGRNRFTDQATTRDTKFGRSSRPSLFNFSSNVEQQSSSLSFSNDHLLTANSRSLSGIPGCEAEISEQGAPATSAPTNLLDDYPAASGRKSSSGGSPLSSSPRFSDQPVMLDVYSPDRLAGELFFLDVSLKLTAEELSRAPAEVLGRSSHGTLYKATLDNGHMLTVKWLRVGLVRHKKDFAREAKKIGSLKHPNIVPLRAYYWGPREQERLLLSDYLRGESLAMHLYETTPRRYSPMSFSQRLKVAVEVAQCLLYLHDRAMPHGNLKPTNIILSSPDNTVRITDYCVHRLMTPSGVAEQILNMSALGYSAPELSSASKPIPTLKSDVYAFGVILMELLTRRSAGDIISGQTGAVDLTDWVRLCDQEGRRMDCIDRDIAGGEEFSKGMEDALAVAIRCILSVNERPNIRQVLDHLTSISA

The target of experiment [1] is T2, SIRK1S744A-cYFP (Arabidopsis) (UniProt Q0WR59).
T2 sequence: T1 sequence with S723A

In experiment [2] the target is T3, cYFP-PIP2;4 (Arabidopsis) (UniProt Q9FF53).
T3 sequence: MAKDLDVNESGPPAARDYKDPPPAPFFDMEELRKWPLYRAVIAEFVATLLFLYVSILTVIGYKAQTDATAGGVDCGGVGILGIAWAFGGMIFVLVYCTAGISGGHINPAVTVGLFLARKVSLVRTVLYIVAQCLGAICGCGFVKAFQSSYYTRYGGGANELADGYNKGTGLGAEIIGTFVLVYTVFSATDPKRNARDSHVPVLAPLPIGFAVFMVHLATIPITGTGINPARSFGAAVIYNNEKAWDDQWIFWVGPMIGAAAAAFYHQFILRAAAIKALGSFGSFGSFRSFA

Experiment [3] has as its target T4, SIRK1S744D-cYFP (Arabidopsis) (UniProt Q0WR59).
T4 sequence: T1 sequence with S723D

B1: QSK1-nYFP (receptor, UniProt Q9M8T0 24-627)
chain: SDLESDRRALLAVRNSVRGRPLLWNMSASSPCNWHGVHCDAGRVTALRLPGSGLFGSLPIGGIGNLTQLKTLSLRFNSLSGPIPSDFSNLVLLRYLYLQGNAFSGEIPSLLFTLPSIIRINLGENKFSGRIPDNVNSATRLVTLYLERNQLSGPIPEITLPLQQFNVSSNQLNGSIPSSLSSWPRTAFEGNTLCGKPLDTCEAESPNGGDAGGPNTPPEKKDSDKLSAGAIVGIVIGCVVGLLLLLLILFCLCRKRKKEENVPSRNVEAPVAAATSSAAIPKETVVVVPPAKATGSESGAVNKDLTFFVKSFGEFDLDGLLKASAEVLGKGTVGSSYKASFEHGLVVAVKRLRDVVVPEKEFRERLHVLGSMSHANLVTLIAYYFSRDEKLLVFEYMSKGSLSAILHGNKGNGRTPLNWETRAGIALGAARAISYLHSRDGTTSHGNIKSSNILLSDSYEAKVSDYGLAPIISSTSAPNRIDGYRAPEITDARKISQKADVYSFGVLILELLTGKSPTHQQLNEEGVDLPRWVQSVTEQQTPSDVLDPELTRYQPEGNENIIRLLKIGMSCTAQFPDSRPSMAEVTRLIEEVSHSSGSPNPVSD
As for B1, the binding entry in the experiment with SIRK1-cYFP (Arabidopsis) is “binds”; in experiment [1] it was “no binding”; in experiment [2] it was “binds”; in experiment [3], “binds”.

B2: QSK2-nYFP (receptor, UniProt Q9FMD7 24-625)
chain: DLEADRRALIALRDGVHGRPLLWNLTAPPCTWGGVQCESGRVTALRLPGVGLSGPLPIAIGNLTKLETLSFRFNALNGPLPPDFANLTLLRYLYLQGNAFSGEIPSFLFTLPNIIRINLAQNNFLGRIPDNVNSATRLATLYLQDNQLTGPIPEIKIKLQQFNVSSNQLNGSIPDPLSGMPKTAFLGNLLCGKPLDACPVNGTGNGTVTPGGKGKSDKLSAGAIVGIVIGCFVLLLVLFLIVFCLCRKKKKEQVVQSRSIEAAPVPTSSAAVAKESNGPPAVVANGASENGVSKNPAAVSKDLTFFVKSFGEFDLDGLLKASAEVLGKGTFGSSYKASFDHGLVVAVKRLRDVVVPEKEFREKLQVLGSISHANLVTLIAYYFSRDEKLVVFEYMSRGSLSALLHGNKGSGRSPLNWETRANIALGAARAISYLHSRDATTSHGNIKSSNILLSESFEAKVSDYCLAPMISPTSTPNRIDGYRAPEVTDARKISQKADVYSFGVLILELLTGKSPTHQQLHEEGVDLPRWVSSITEQQSPSDVFDPELTRYQSDSNENMIRLLNIGISCTTQYPDSRPTMPEVTRLIEEVSRSPASPGPLSD
As for B2, the values for the binding entry (with SIRK1-cYFP (Arabidopsis); in experiment [1]; in experiment [2]) were “binds”, “no binding” and “binds”, respectively.
